Test results reported in ChEMBL document CHEMBL4888484, “Replenishing the malaria drug discovery pipeline: Screening and hit evaluation of the MMV Hit Generation Library 1 (HGL1) against asexual blood stage Plasmodium falciparum ,using a nano luciferase reporter read-out” (2022).
The campaign covered roughly 4,800 compounds. About 420 (8.8%) showed an effect of 50% or more. The list shows a part of the results.

tested on: Plasmodium falciparum; assay: Confirmatory screen in NF54 nanoGlo assay, in single point, at 2uM, 72h; assay type: functional, Erythrocyte; conditions: timepoint 72 hour

Row | SMILES | % Inhibition [%]
1 | O=C(NC1CC1C1CCCCC1)N1CCS(=O)(=O)CC1 (stereo not given) | -3
2 | Oc1ccc(C2=C(c3ccccc3)N=NCN2O)c(O)c1 | -14
3 | CC(C)[C@H](OC(=O)n1ccnc1)C(=O)OC(C)(C)C | -10
4 | CNCc1cc(OC)c(OC)cc1Cl | -2
5 | COc1ccccc1N1CCN(CC(=O)Nc2c3c(nc4ccccc24)N(c2cccc(C)c2)CC3)CC1 | -6
6 | CCOC(=O)c1ccc2[nH]cnc2c1NC(C)=O | 3
7 | Cn1nc(C(=O)NC2CCCCC2)cc1C(=O)NC1CCCCC1 | -10
8 | COc1ccc(-n2ncc3c(N)c4c(nc32)CCCC4=O)cc1 | 38
9 | CCc1ccc(NC(=O)c2c(C)sc3ncnc(N4CCCCC4)c23)cc1 | 8
10 | N[C@H]1C[C@@H](c2cc(N3CCN(C4CCCCC4)CC3)nc(N3CCCC3)n2)C1 | 44
11 | COc1ccc(-n2nc(C)c3c2NC(=O)C[C@@H]3c2ccccc2OCC(C)C)nn1 | -7
12 | C[C@H]1CCCN(S(=O)(=O)NCC(=O)Nc2ccccn2)C1 | -15
13 | NC(=O)C(NC(=O)c1cccc(Cl)c1)C(N)=O | -23
14 | CC(CC1OCC(C[N+]2(Cc3ccccc3)CCCCC2)O1)CC(C)(C)C (stereo not given) | 57
15 | CS(=O)(=O)NCCn1nc(-c2cnccn2)cc1C1CC1 | -1
16 | CC(C)Cn1ncnc1COC(=O)c1cccnc1 | -1
17 | COc1cccc(C(=O)N2CCC[C@@]3(C2)Nc2cccnc2N=C3NCc2ccccc2)c1 | -4
18 | COc1cc2c(cc1-c1cccnc1)CCC(=O)N2C | -15
19 | O=C(NOC1CCCCO1)NC1CCOC1c1ccc(Cl)cc1 (stereo not given) | -8
20 | COc1cccc(C(=O)N2CCN(c3nnc4ccc(C(F)(F)F)cn34)CC2)c1 | 1
21 | Nc1ncncc1C(=O)NCCc1c[nH]c2ccc(F)cc12 | -4
22 | CC(C)(NCc1ccncc1Cl)c1ccc2c(c1)OCO2 | -8
23 | CC1(C)CN(C(=O)c2cn[nH]c(=O)c2)C(C)(C)CN1Cc1ccccc1 | -2
24 | Cc1nonc1NC(=O)CCCC1CCCC1 | 0
25 | Cc1nn(Cn2nc(-c3ccc(F)cc3)c(Br)c2-c2ccc(F)cc2)c(C)c1Cl | 5

Row | SMILES | % Inhibition [%]
26 | O=S(=O)(c1cccc(F)c1)c1cnc2c(F)cccc2c1-c1cccc(F)c1 | -8
27 | CCc1ccc(CNC(=O)C2(N3CCOCC3)CCC2)s1 | -5
28 | Cc1cc(C)c(C(=O)O)cc1NC(=O)c1oc(C2CC2)nc1C | -8
29 | CC1(C)CC(=O)C2(Cc3cc(C(F)(F)F)ccc3N3CCCC[C@H]32)C(=O)C1 | 3
30 | CCCCS(=O)(=O)N1CC[C@H](CC(=O)NCc2ccccc2)C1 | -14
31 | O=C(Nc1cccc2ccccc12)c1nn[nH]c1NS(=O)(=O)c1ccccc1 | -9
32 | Cc1nc2c(Oc3ccccc3)cccc2c2c1CCN2c1ccc(OC(F)(F)F)cc1 | -17
33 | COc1nc2ncnc(OC)c2nc1C#N | 3
34 | N#CCc1ncc(CCN2C(=O)c3ccccc3C2=O)s1 | -1
35 | O=C1CN(C(=O)c2ccc3noc(-c4ccccc4)c3c2)CCN1 | -1
36 | CC(C)N1CCC(NC(=O)NCC2CCCCCCC2)CC1 | 0
37 | O=C1CNC(=O)N1Cc1ncoc1-c1ccccc1 | -15
38 | O=C1O[C@H](C(=O)Nc2ccc(S(=O)(=O)N3CCCC3)cc2)Cc2ccccc21 | -16
39 | Cc1cc(C)n(-c2nnc(-c3ccccc3)c(-c3ccccc3)n2)n1 | 2
40 | COc1c2c(cc3c1[C@@H](C#CCOc1ccccc1)[N+](C)(C)CC3)OCO2 | 75
41 | CC(C)(C)c1cnc(CN2CCCN(C(N)=O)CC2)s1 | -1
42 | CCS(=O)(=O)N1CCC(N2C(=O)[C@@H]3CC[C@@H](c4ccccc4)N3C2=O)CC1 | -5
43 | c1cc(-c2nnn(CN3CCCCC3)n2)ccn1 | -6
44 | N[C@H]1COc2ccc(Br)cc2C1=O | -3
45 | CC1(C)C(NCC(O)COc2ccc(F)c(F)c2)[C@@H]2CCC[C@@H]21 (stereo not given in full) | 72
46 | COc1ccc(-c2nccn3cc(C(=O)NCCc4ccncc4)nc23)cc1 | -1
47 | CS(=O)(=O)Nc1ccc(OC(=O)C2C3CCCCC32)cc1 (stereo not given) | 7
48 | CC1CCC2C(CCC(C)N2C(=O)c2cc3nc4c(c(C(F)(F)F)n3n2)CCc2ccccc2-4)C1 (stereo not given) | -2
49 | CC(C)N(C)CCOC(=O)c1ccccc1Cl | -1
50 | Cc1ccc(S(=O)(=O)Nc2ccccc2-c2nnc(-c3c(NS(=O)(=O)c4ccc(C)cc4)ccc4ccccc34)o2)cc1 | -14
